# Results published in the supplement of paper PMC3334620.
# In all, about 33,000 sequences were measured (“E-score (-0.5 to 0.5)”: median about -0.043, highest 2% from about 0.37 on). This is one part of the list.
# Molecular target: T1, Upc2 (UniProt Q12151)
# T1 sequence: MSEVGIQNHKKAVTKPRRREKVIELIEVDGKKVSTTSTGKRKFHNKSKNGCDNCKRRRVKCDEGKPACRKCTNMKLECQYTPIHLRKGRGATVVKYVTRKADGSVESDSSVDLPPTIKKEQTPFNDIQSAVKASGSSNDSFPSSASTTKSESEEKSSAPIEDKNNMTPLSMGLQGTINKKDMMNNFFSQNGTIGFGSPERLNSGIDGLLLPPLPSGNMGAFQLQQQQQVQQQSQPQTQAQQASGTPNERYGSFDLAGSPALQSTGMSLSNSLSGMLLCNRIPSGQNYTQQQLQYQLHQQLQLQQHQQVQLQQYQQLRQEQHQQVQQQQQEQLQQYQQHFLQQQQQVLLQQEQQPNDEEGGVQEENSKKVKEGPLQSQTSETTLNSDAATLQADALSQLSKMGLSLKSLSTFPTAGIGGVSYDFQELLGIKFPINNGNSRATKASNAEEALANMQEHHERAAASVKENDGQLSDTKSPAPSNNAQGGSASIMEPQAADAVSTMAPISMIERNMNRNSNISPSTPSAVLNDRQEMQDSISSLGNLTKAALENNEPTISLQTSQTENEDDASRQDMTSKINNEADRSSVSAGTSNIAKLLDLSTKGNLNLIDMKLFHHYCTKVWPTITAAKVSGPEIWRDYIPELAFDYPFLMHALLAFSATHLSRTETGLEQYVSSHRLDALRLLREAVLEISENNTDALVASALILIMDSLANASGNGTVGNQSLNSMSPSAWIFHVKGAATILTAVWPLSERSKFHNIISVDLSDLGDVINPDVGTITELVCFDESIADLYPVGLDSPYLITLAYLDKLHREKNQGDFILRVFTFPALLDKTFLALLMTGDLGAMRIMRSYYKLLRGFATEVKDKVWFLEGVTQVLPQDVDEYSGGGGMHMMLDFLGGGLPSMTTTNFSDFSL
# Experiment: PBM E-score (8-mer binding enrichment) (E-score (-0.5 to 0.5)); higher = stronger / more preferred TF binding; most listed sequences are background and not binding sites
# Conditions: protein concentration: 200 nM; construct: GST-full length
# Protocol: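 Universal 'all 10-mer' protein binding microarrays (Agilent AMADID 015681) probed with GST-tagged S. cerevisiae TFs (full-length or DBD) made by in vitro transcription/translation (PURExpress), about 100-200 nM. Bound TF was detected with fluorescent anti-GST. Each ungapped 8-mer (which stands for itself and its reverse complement) is scored by the PBM enrichment score (E-score), a modified Wilcoxon-Mann-Whitney statistic from -0.5 to +0.5, computed with the Universal PBM Analysis Suite. Scale: above 0.35 generally sequence-specific binding.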
row,Sequence,PBM E-score
1,GTCCTCGA,-0.123
2,AATATCTC,0.0702
3,CATCGTGG,-0.0907
4,ACCGTGGG,-0.154
5,TGCAGTAA,-0.228
6,GTCCGGAA,-0.11
7,ACTAGGCA,-0.197
8,ACAGAGAT,0.00119
9,CACGCACG,-0.226
10,ATTGGGTG,-0.114
11,ATTTTGCC,-0.194
12,GACACCAC,-0.159
13,AGATAAAT,0.0119
14,ACGGCAGC,0.13
15,CGTAGTGA,-0.0166
16,ACATACTC,0.0912
17,AATGTAGC,-0.0689
18,AGGTCGCA,0.13
19,AGGAGGGA,-0.278
20,GTTTCAAA,0.0965
21,ACTGCGTG,-0.0214
22,GCAATCTA,-0.0928
23,GCAGCTCA,-0.183
24,CAGCGATC,0.149
25,TGATAACA,0.115

row,Sequence,PBM E-score
1,GTCACTCA,-0.183
2,CAGGCGGA,-0.00607
3,TAAAGAGA,-0.0259
4,ATCACTAC,-0.153
5,TGTCTTAA,-0.141
6,AGTTCGGA,-0.0507
7,ATTTGCAA,0.0573
8,GGAACGCC,0.013
9,ACGGCCTG,0.0204
10,CCACCTGA,-0.171
11,AACACCGC,-0.0137
12,AAAATCAA,-0.0608
13,AATGCGTC,-0.168
14,CGGCTACC,-0.104
15,CTGGCTCC,-0.252
16,AGAGCCTC,-0.0518
17,ACGGGAAG,0.108
18,GTTCCTTA,0.171
19,CAGAGTAA,-0.178
20,CAGAGATA,-0.0881
21,AACTGTAT,0.0377
22,CCTCATAG,-0.226
23,CCAGGAAG,-0.066
24,GCTAGTAC,0.123
25,TCATCGCA,0.132

row,Sequence,PBM E-score
1,AGAGGCAG,-0.0863
2,AATAGTGA,-0.144
3,AGCACGTG,0.144
4,AGGGAGTG,-0.189
5,ACTAGCCC,-0.218
6,ACAACACA,0.0331
7,CAACCGAA,0.173
8,GCGGGTAC,0.149
9,ACGGTAAG,0.246
10,AGAATGGC,-0.0744
11,AGGCAACT,-0.0376
12,TATCCTCA,0.0143
13,AAGGGACC,-0.00722
14,AACGAAAT,0.398
15,AGTTCGAT,-0.131
16,AATGGGGG,-0.252
17,AAGAAAGC,-0.0961
18,AACTCCGT,0.0263
19,ACAGCCAT,0.0163
20,CCCCGTGA,-0.217
21,CGCAGGTC,-0.111
22,GAGAATAA,0.0362
23,AAGAAATC,-0.0456
24,AAAGCACA,0.0274
25,GGTTACAA,0.101

row,Sequence,PBM E-score
1,AACGGGCG,0.274
2,AATACATA,-0.115
3,AACCTGCA,0.0779
4,AAACTAGC,-0.111
5,GGATAAAC,0.239
6,AGCGAGTA,0.269
7,CTGAGACC,-0.291
8,GATCTCAA,-0.109
9,ACTGGCAC,-0.24
10,AGTGCCAA,-0.0209
11,GGATGGCC,-0.314
12,TATAAATA,0.13
13,GGGTTTAC,0.144
14,ATACCTAA,0.108
15,ATACGCCG,0.343
16,CATTAGAC,-0.407
17,GCTCATGA,0.13
18,GAGGGGTA,0.0563
19,AGAGCGAA,0.0669
20,CTAATACA,-0.173
21,AAATAACA,0.0355
22,GCACACGC,-0.157
23,CCAGAAGC,-0.246
24,TAATCTAA,-0.113
25,GATACGGC,0.324

row,Sequence,PBM E-score
1,AGTGGGAT,0.0238
2,CCTTCCCA,-0.117
3,AAGACCCA,-0.151
4,GTATCATA,0.269
5,ACGTCAGA,-0.174
6,CGGTGAAG,-0.0357
7,AAGCCTTC,-0.324
8,CTGGACTC,-0.159
9,GCCAAGCA,-0.254
10,ATAGCCCC,-0.19
11,CCATCAAA,0.0175
12,CAGATCAA,-0.163
13,CTACTCTC,-0.194
14,CCATCGCA,0.0499
15,GGCCTATA,0.0533
16,AATTTTAG,0.0625
17,AGTGCGGC,-0.143
18,ATACGCTC,0.357
19,ACGAGCAC,0.327
20,ACCTTCAA,-0.19
21,CCATCTCA,-0.28
22,CAAGTCGC,-0.0572
23,AGAAATTG,-0.0168
24,CACCGTAG,0.0923
25,ACTCCTAT,-0.0419

row,Sequence,PBM E-score
1,CGCCCGCG,-0.0813
2,CGGGTACA,0.114
3,CGTTGGTC,0.026
4,CCTTTCGC,0.00807
5,CGAGGAGC,0.185
6,GCAACTAC,-0.19
7,CACGGGCC,-0.282
8,CACGACTA,-0.0651
9,GCTAGCCA,-0.298
10,GTTACCGA,0.166
11,CTCTATGC,-0.0449
12,TAGAACAA,-0.138
13,AACAACTA,-0.0906
14,TCCAGCGA,-0.102
15,AGTGGACA,-0.197
16,CGGGATAA,0.0746
17,AGTTCAGG,-0.0566
18,CACTAGAA,-0.134
19,CGAATTTC,0.0708
20,CACCTCCG,-0.262
21,ATCTAGCG,-0.0924
22,CCTTTGGC,-0.349
23,CGCGTATA,0.451
24,CGGATTAA,0.128
25,GTCCGAAC,-0.0689

row,Sequence,PBM E-score
1,AGGGGCAC,-0.107
2,CACAAACG,0.387
3,CCGTGGAC,-0.0684
4,CGAACCCC,-0.0262
5,ATGTTGTC,-0.0387
6,AGGTGCGC,-0.0888
7,CACGACAC,0.114
8,CCACAAGA,-0.204
9,CCGGCGGC,-0.183
10,ATAGCATG,-0.146
11,GGATAAAA,-0.0346
12,AGACACAC,0.0482
13,TAGACCGA,-0.0372
14,CCTCATTC,-0.221
15,GCCTAATA,-0.0394
16,ATGCGTCA,0.0463
17,ATCGTATG,0.455
18,CTATAAAA,0.108
19,CCAACGAA,0.109
20,CTGAACCC,0.0462
21,GCGACAAC,0.204
22,AAGTAACC,0.0147
